For four substances, binding results are on record in publication PMC8945367.

Amino acid sequences for entries named in this document (tags omitted). A change or cut given only in a name is not applied to a line headed by its entry. Chains listed by the source or under a name are the forms on record and can include a tag or linker.
Mef2c deletional construct 175−466 (Q8CFN5-2, form named): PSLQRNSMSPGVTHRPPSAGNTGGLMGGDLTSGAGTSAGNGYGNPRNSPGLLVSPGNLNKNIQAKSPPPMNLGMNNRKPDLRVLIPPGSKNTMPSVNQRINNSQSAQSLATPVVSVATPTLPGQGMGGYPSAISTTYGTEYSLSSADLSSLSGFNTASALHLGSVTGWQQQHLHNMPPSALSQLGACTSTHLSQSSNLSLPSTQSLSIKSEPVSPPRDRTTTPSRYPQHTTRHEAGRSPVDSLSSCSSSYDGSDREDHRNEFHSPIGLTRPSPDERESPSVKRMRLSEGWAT
Mef2c deletional construct 86−466 (Q8CFN5-2, form named): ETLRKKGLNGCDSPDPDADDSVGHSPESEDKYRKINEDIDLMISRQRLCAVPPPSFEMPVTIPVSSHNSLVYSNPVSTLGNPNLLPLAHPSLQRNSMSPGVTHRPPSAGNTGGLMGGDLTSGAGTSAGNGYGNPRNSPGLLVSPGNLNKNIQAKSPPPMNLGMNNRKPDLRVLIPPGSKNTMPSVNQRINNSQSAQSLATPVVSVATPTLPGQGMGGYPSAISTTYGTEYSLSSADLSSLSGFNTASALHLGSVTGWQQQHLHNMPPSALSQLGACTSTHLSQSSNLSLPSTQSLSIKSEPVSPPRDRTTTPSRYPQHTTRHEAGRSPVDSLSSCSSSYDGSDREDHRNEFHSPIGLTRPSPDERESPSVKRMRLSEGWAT
Mef2c deletional construct Δ(58−85) (Q8CFN5-2, form named): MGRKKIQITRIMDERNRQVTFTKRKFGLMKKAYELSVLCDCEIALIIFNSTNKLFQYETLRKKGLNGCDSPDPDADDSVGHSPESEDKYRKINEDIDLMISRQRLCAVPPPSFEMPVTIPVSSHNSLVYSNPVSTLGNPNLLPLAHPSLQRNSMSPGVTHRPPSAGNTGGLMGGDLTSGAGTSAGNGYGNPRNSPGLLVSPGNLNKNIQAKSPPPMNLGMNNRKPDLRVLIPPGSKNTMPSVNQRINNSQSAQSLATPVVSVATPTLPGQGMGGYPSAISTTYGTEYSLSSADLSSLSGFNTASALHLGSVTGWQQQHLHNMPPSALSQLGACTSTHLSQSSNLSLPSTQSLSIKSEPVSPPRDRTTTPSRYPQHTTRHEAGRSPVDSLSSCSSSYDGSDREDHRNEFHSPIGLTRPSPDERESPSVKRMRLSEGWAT
6×Myc-Mef2c (Q8CFN5-2, form named): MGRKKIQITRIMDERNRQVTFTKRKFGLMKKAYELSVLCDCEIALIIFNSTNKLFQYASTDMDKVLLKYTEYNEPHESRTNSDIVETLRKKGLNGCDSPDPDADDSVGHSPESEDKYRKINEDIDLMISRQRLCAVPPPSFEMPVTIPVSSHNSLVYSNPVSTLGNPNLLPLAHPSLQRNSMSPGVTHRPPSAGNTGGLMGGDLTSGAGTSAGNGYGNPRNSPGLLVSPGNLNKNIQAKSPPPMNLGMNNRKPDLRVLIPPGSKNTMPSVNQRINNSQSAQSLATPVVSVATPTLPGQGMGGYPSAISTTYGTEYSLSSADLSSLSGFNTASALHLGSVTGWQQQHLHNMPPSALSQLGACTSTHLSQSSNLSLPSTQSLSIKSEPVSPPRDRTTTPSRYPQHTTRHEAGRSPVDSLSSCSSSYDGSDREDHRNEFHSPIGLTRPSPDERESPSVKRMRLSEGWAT

These are yes or no findings as the source states them, for the method shown. In cells and extracts the contact can be indirect. Some results given as binding are weak or reduced against the parent protein; the word gives no strength.

What all share (assay): co-IP; HEK293T cells cotransfected with 3×HA-Creb1 (or mutants) and 6×Myc-Mef2c (or deletions) for 24 h; lysis buffer 50 mM Tris pH 7.5, 150 mM NaCl, 5 mM EDTA, 0.1% Triton X-100, 1 mM dithiothreitol; IP with rat anti-HA antibody (control rat IgG), blot with anti-Myc
One experiment addresses 3×HA-Creb1 (UniProt Q01147).
Experiment [1] addresses Creb1 deletional construct 92−327 (UniProt Q01147).
For experiment [2], the target named is T1, Creb1 deletional construct 254−327 (UniProt Q01147).
T1 sequence: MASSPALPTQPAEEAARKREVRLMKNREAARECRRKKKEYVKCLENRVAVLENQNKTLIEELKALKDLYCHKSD

A further experiment concerns the target 3×HA-Creb1-S119A (UniProt Q01147).
In experiment [3] the target is Creb1 deletion mutant 1−149 (UniProt Q01147).
Experiment [4] addresses Creb1 deletion mutant 1−253 (UniProt Q01147).

As for “Mef2c deletional construct 175−466 (from UniProt Q8CFN5-2 175-466) (domain or fragment)”, the binding result with 3×HA-Creb1 is “no binding”.
Still for that read-out and setting: then “Mef2c deletional construct 86−466 (from UniProt Q8CFN5-2 86-466) (domain or fragment)”, with “no binding”; and “Mef2c deletional construct Δ(58−85) (from UniProt Q8CFN5-2 1-466)”, with “no binding”.
As to “6×Myc-Mef2c (from UniProt Q8CFN5-2 1-466)”, the binding result is given as “binds” in experiment [1]; “binds” in experiment [2]; “binds” in the experiment with 3×HA-Creb1; “binds” in the experiment with 3×HA-Creb1-S119A; “no binding” in experiment [3]; “no binding” in experiment [4].
